No constants are given. Whether binding was seen depends on the method and setting. Binding seen in cells or lysates may run through a third protein. Some results given as binding are weak or reduced against the parent protein; the word gives no strength. Sequences can lack the tags named with a protein.
Legend:
Experiment in all cases: FRET or BRET; FRET by FLIM in live MCF7 cells; GFP fusion of AURKA (or AURKA ΔNter) as donor, mCherry fusion as acceptor; read-out ΔLifetime; also with DMSO or MG132 (1 μM, 16 h), control or PARK2 siRNA, xanthohumol (AURKA with PHB2), or co-expressed PHB2–6xHis, PHB2 S39A–6xHis or PHB2 S39D–6xHis (AURKA with MAP1LC3B)
[1] = target: T1, LAMP1–mCherry (UniProt P11279)
T1 sequence: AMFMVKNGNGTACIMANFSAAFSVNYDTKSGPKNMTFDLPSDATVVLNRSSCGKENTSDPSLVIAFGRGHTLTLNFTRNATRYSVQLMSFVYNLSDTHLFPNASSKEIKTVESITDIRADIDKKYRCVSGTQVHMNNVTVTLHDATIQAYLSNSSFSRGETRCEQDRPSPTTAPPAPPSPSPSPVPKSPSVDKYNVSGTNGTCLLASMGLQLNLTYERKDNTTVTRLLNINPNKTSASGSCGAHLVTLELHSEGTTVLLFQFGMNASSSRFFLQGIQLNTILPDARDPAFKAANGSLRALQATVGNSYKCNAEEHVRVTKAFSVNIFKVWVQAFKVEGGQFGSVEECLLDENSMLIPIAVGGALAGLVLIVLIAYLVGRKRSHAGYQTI

Sequences of proteins named here, by UniProt entry; tags and fusion partners are left off. Residues count along the entry.
UniProt Q8NE86, residues 51-351: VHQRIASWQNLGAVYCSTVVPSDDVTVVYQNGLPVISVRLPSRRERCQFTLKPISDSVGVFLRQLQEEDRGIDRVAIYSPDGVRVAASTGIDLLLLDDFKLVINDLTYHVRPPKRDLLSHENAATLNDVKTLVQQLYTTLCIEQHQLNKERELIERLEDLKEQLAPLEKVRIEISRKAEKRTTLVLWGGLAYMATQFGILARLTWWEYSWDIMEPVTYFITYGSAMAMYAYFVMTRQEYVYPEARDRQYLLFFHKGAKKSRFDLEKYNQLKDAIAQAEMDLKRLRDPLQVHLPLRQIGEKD

[2] = target: MCU-mCherry (UniProt Q8NE86)
[3] = target: T2, PHB-mCherry (UniProt P35232)
T2 sequence: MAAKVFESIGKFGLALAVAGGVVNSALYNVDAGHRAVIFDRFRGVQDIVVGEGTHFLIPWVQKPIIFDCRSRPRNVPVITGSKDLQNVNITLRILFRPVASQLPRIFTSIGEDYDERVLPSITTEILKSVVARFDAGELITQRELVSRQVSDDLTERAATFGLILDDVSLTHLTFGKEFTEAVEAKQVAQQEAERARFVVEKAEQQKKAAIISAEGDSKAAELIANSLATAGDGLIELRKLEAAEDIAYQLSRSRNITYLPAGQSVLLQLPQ

[4] = target: PHB2 S39A-mCherry (UniProt Q99623)
[5] = target: PHB2 S39D-mCherry (UniProt Q99623)
[6] = target: PHB2-mCherry (UniProt Q99623)

B1: AURKA–GFP (enzyme, UniProt O14965 1-403)
chain: MDRSKENCISGPVKATAPVGGPKRVLVTQQFPCQNPLPVNSGQAQRVLCPSNSSQRIPLQAQKLVSSHKPVQNQKQKQLQATSVPHPVSRPLNNTQKSKQPLPSAPENNPEEELASKQKNEESKKRQWALEDFEIGRPLGKGKFGNVYLAREKQSKFILALKVLFKAQLEKAGVEHQLRREVEIQSHLRHPNILRLYGYFHDATRVYLILEYAPLGTVYRELQKLSKFDEQRTATYITELANALSYCHSKRVIHRDIKPENLLLGSAGELKIADFGWSVHAPSSRRTTLCGTLDYLPPEMIEGRMHDEKVDLWSLGVLCYEFLVGKPPFEANTYQETYKRISRVEFTFPDFVTEGARDLISRLLKHNPSQRPMLREVLEHPWITANSSKPSNCQNKESASKQS
- binding [1]: binds
- binding [2]: no binding
- binding [3]: binds
- binding [4]: binds
- binding [5]: binds
- binding [6]: binds

From paper PMC8046421
